Our source for the self-cleavage values is the RNAGym collection of RNA variant scans (doi:10.1093/nar/gkz1192).

The source gives no read counts; variants with many changes may rest on few reads.

To fix the notation:
B1: CPEB3 Ribozyme (parent)
chain: UAACAGGGGGCCACAGCAGAAGCGUUCACGUCGCAGCCCCUGUCAGAUUCUGGUGAAUCUGCGAAUUCUGCUGUAUAUCUC

In this series the parent is B1. Briefly: self-cleavage, relative activity (ratio to wild type); higher = more cleavage; in vitro, sequencing. In short, it runs like this:
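Libraries of CPEB3 self-cleaving ribozyme mutants came from rounds of error-prone PCR and carried barcodes, which DNA sequencing matched to variants. In vitro transcription used T7 RNA polymerase at 37°C for 5 hours, with a further 15 min in DNase I before EDTA stopped the reaction; the ribozymes cleaved during both steps. The RNA was reverse transcribed with template switching and sequenced on Illumina. Relative activity is the cleaved/total read fraction of a variant divided by that of the unmutated ribozyme, averaged over three batches with at least 5 reads.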
Turning to C11U C50U A56U, the self-cleavage was 0.15.
For the variant C11U A21G A28C U74C A77G, the self-cleavage was determined as 0.08.
Take C11U C12U U48C: the self-cleavage came out at 0.4.
Regarding C11G A21U A35U A65G U67A, the self-cleavage amounted to 0.02.
As to C11G U41C U49C, the self-cleavage came out at 0.26.
Take C12A C17G A20G A21G U31A U72C A75U: the self-cleavage was 0.17.
Take C11U A21G G55C U58C A64G: the self-cleavage is 0.04.
With C12A A35G U41C, the self-cleavage was determined as 0.71.
Consider C11U U25A U26C A28G U48C U60C, for which the self-cleavage came to 0.03.
In the case of C11G G52A U58C A77U, the self-cleavage was found to be 0.38.
Consider C12U A45G G53A U60C, for which the self-cleavage is 1.46.
For the variant C11A A15G A45G U49C U51A G63C, the self-cleavage turned out to be 0.21.
Regarding C12A U26C G52A U54C U80C, the self-cleavage amounted to 0.66.
For the variant C11G C23A A28G U31A C40U, the self-cleavage was 0.05.
Consider C12A A35G U41A U54C C68G, for which the self-cleavage came out at 0.19.
As to C11A C23U U43A C62U, the self-cleavage came to 0.07.
On to C12A A13C U51A U54C U69C, for which the self-cleavage turned out to be 0.47.
In the case of C12U A13G A18U, the self-cleavage amounted to 0.27.
Regarding G10U A13G A18G A45G, the self-cleavage is 0.12.
Turning to G10U U25C A45U G46C U69C U72C A77G, the self-cleavage was 0.04.
As to C11G U25A U41C U43C A64G, the self-cleavage is 0.1.
On to C12U A20G C29U U31A U51A U80C, for which the self-cleavage was 0.15.
As for C12A U26C U31C U48C A57G, the figure is 0.3.
As for C11G U25C A64G A77C, the figure is 0.09.
Regarding C11A U51C U74A, the self-cleavage was 0.4.
Take C12A A18U U26A C29A: the self-cleavage turned out to be 0.34.
Under C12U A47U G63C U74C stands 1.27; under C11A A15U A35G A45G, 0.39; under C12U A20G U31G A47G, 0.92.
Under C12U A45C A75G stands 1.1; under C11A A15G A35U A57G U69A, 0.07; under C11U A13U G53A U67A A77U, 0.11.
Turning to G10C A18G A20G U60C A64G, the self-cleavage was 0.22.
Consider C12U A18U C44U U49G U76A, for which the self-cleavage amounted to 0.07.
On to C12G A18G U51C C71G, for which the self-cleavage was determined as 0.09.
Regarding C11G C17U A56U U66C, the self-cleavage worked out at 0.05.
For the variant C12A A18U A35C U43A U80C, the self-cleavage amounted to 0.55.
As for C11U A20U A28C, the figure is 0.12; as for C11G A56G U69A A77G, 0.09.
As for C11U A18G U51A A56U, the figure is 0.08.
For the variant C11U C12U U26C U48C U69C, the self-cleavage stood at 0.15.
As for C11A C38U U58C, the figure is 0.2; as for C11A A18U U60C A65G, 0.
In the case of C11G U43A A64G U72C, the self-cleavage worked out at 0.41.
Take C11G A28C U48C: the self-cleavage was 0.26.
Under G10C G30A A57G U58A A64G U67C stands 0.13; under C11U G33U A35G A57G A65G U72A, 0.04.
C12G U51G U54C A56U G73A: the self-cleavage amounted to 0.24.
Turning to C11G A64G U69C U80C, the self-cleavage came to 0.03.
C12A A13C A18G C23A U26C U66C: the self-cleavage stood at 0.09.
As for C11A A13G U25A U69A, the self-cleavage came out at 0.06.
As for C11A A28G A45U C79G, the self-cleavage was determined as 0.24.
Under C11A A13G A35G A45G U60C U67C stands 0.13; under C11A A20G A45C U49A, 0.17; under C11A C12U A18U A64G U72A, 0.19.
As for C11A G33A A35U U43G, the figure is 0.03; as for C11U A20G C32U, 0.43; as for C11G U76A U78C, 0.49.
For C11A A28G A57G, the self-cleavage was found to be 0.23.
Take C11U A15U A18G A64G: the self-cleavage was 0.19.
For the variant C11G C34G U51G A65G U78C, the self-cleavage came to 0.06.
Take C11U U31A U76A: the self-cleavage came to 0.13.
In the case of C12U A15G A28G A57G U74A, the self-cleavage came to 0.48.
With C12A U54C G61A U76C, the self-cleavage was determined as 0.78.
For the variant C11G A15U U43G U49C U54C A56U U58C, the self-cleavage came out at 0.05.
C11A A13G U25C U26C A65G U80C: the self-cleavage was 0.04.
Turning to G10U G52U U72A, the self-cleavage was found to be 0.12.
As to C12A U58C A65G, the self-cleavage stood at 0.24.
For G10C G19U U25C A47G U48A U76A, the self-cleavage was 0.15.
Under C11G G33U U49A G52A stands 0.24.
For C11G C32U C34U G36U A75U, the self-cleavage was 0.04.
As to C11G U41A A57C U66C U80A, the self-cleavage is 0.04.
On to C11G A13U A45G U54C, for which the self-cleavage came out at 0.26.
As for C11G U31A A35U U43C U54A, the figure is 0.28; as for G10C A18G A64G, 0.12; as for C11G C14U U60C, 0.1.
Consider C11U A21G U25C C32G U72A, for which the self-cleavage was 0.24.
Regarding C11G U51C U72C, the self-cleavage is 0.63.
Under C12U A13G U25C U72C U78C stands 0.39; under G10U U26A U51A A64U, 0.13; under C11G U31C U49A U60A U69C, 0.08.
Take C12U A21G U26C A47U U51C C81U: the self-cleavage came out at 0.21.
Turning to C11A U25C G63A U66C, the self-cleavage came out at 0.06.
For the variant C12U A21G U26C U51C C81U, the self-cleavage was determined as 0.45.
Consider G10U C17G A45U U54C U78A, for which the self-cleavage was found to be 0.15.
Regarding C11G A21U G36A A75U, the self-cleavage is 0.07.
As for C11G U26A U31C G33A U48C A65G, the figure is 0.03.
As for C12A G24C U25C U60G, the figure is 0.07; as for C11G U51C U69C, 0.2.
As to C12U A13G U66C U72C, the self-cleavage is 0.18.
In the case of C11G A20U U41A U54C U72A A77U, the self-cleavage was 0.07.
C11G U25C U60A A75G: the self-cleavage was found to be 0.05.
Regarding C11A U41A A57G, the self-cleavage was 0.38.
Regarding C12A A15G U48C U58A U76A U80C, the self-cleavage came out at 0.36.
For the variant C11A G30A A64G U74A, the self-cleavage is 0.15.
G10U A64G G70C: the self-cleavage was 0.32.
Turning to C11G U48C A64G, the self-cleavage turned out to be 0.48.
Under G10C A28G U69C stands 0.16; under C11U U51A A57U G63A U78C, 0.09.
As to C12U A56G U80C, the self-cleavage came out at 1.18.
As for C11A A28G U41C C44U, the figure is 0.19; as for C11U A13U U51C U80C, 0.48.
Turning to G10C U43A A45U A64G, the self-cleavage was 0.15.
With C12U A28G U74A, the self-cleavage was 1.25.
On to C12G C23G A64U U76C U80C, for which the self-cleavage was found to be 0.04.
For G10U A18C U31C G55U A57G U60C, the self-cleavage came to 0.1.
Take C11U A28G G55U: the self-cleavage turned out to be 0.11.
On to G10U C14U A35G A45U U48C G63A, for which the self-cleavage came to 0.07.
As to C11U A35C U41C G46C A57G U80C, the self-cleavage amounted to 0.09.
Regarding C11U U76G A77G, the self-cleavage turned out to be 0.32.
As to C11U A15U U51C A57G U60A U80A, the self-cleavage is 0.06.
Under C12A A13C U72C stands 1.06; under C11G C39G C62G U72C, 0.02.
In the case of C11G U31A U69A, the self-cleavage is 0.33.
Regarding G10U A20U A64G, the self-cleavage was found to be 0.24.
With G10C A47U U58C A77G, the self-cleavage came out at 0.1.
Consider C11G A13G A21C A28U G42A C62A, for which the self-cleavage was 0.02.
Under C11U A13G U25G A45G U58C G70U stands 0.02; under C11U U58C U69A A77G, 0.09.
In the case of C12A A13U U25C G36U U43A A64U, the self-cleavage was determined as 0.07.
Regarding C12G A64G U69C, the self-cleavage was determined as 0.08.
Consider G10A U74C U80A, for which the self-cleavage amounted to 0.39.
On to C12A U41C U51G A56G U78C, for which the self-cleavage came out at 0.77.
Under C11G A21G U25A A57G U67C stands 0.12; under C11G A18C U69C, 0.05.
For the variant G10C A56U A65G U69C, the self-cleavage was determined as 0.12.
With C11G A18U A21G U54C U74A, the self-cleavage was 0.05.
As for C11U U43C U67C, the self-cleavage is 0.06.
Under C11G C14A C37U A64G U69C stands 0.06; under C11A A15G C29U U78C U80A, 0.45.
Under C11A A20U A35U U49C C62U stands 0.06; under C12U A15U U54C A57U U80C, 0.79.
Under G10C U41A A45U U49A G73U stands 0.05.
As for C11U U26C U67C, the self-cleavage turned out to be 0.09.
On to G10U A13G U26C A35U U43C, for which the self-cleavage turned out to be 0.28.
For the variant C11U A13U U26C A64G A65G U74C, the self-cleavage stood at 0.05.
G10U U26C C38G U69A: the self-cleavage is 0.35.
Take G10U G30A A45G U60C U76C: the self-cleavage stood at 0.09.
Under C11G G19C A21G A56G stands 0.09; under G10U U25C A56U A65G, 0.1; under C12A A28G U51C U69G U78C, 0.2.
For the variant C12G U31G U49C, the self-cleavage came to 0.14.
Regarding C11U U60C U80G, the self-cleavage was found to be 0.22.
As for C11U A20U A21G U48C A57G U67C U69A, the self-cleavage was determined as 0.02.
Turning to C12U A21G A28U U60A, the self-cleavage amounted to 0.14.
Take C12A U43C U69A U80C: the self-cleavage came out at 0.27.
Regarding C11G A45G U72C, the self-cleavage was found to be 0.49.
With C12A G24C A56G A57G C62G A65G, the self-cleavage was 0.1.
Under G10C G33A A45G U58A U66C U80C stands 0.18; under C11U C12U U51C, 0.38.
Take C12A A20G U25C G33A U41C U49C U69C: the self-cleavage came to 0.04.
Take C12U A56G A57G: the self-cleavage was determined as 0.84.
C12G A13G C23G C32A A57G: the self-cleavage was 0.06.
In the case of C11U A21G U41A U49A G70A U78A, the self-cleavage stood at 0.04.
For C12U A18G U43A U67A, the self-cleavage turned out to be 0.4.
Take C11G U26C U67G: the self-cleavage came out at 0.16.
Under C12A U41A U78C stands 0.23.
Turning to C11G A13U A57G U78A, the self-cleavage was 1.14.
Consider C11U A20G A45G U66C, for which the self-cleavage stood at 0.09.
With C11G A28G A57G, the self-cleavage was 0.26.
Take C11G A64G C68A U69A: the self-cleavage is 0.06.
Turning to C12U A20G U49A U51A A77U, the self-cleavage was determined as 0.47.
C11U U26A C27U U41C A56U U60A: the self-cleavage stood at 0.08.
For the variant C12A A13G A18G U26A U51G, the self-cleavage amounted to 0.28.
Regarding C11A A15U A18U A56G, the self-cleavage came to 0.07.
For C11U U25C U60A U80A, the self-cleavage was 0.19.
Regarding C12G C39A A45U U72C, the self-cleavage worked out at 0.05.
